Where a name gives a salt, the structure may show the parent alone. ± gives the standard deviation of the averaged measurements. The list shows a part of the results. Repeats are few or missing, and single values can be far off.
Assays:
Test in all cases: log2 surviving fraction relative to plate median (drug vs vehicle, or drug+dl922-947 vs dl922-947 alone); ovarian cancer lines: OVCAR4 is platinum-sensitive while Ov4Cis resists cisplatin and Ov4Carbo carboplatin; higher = more cell survival
Conditions in all cases: compound concentration: 10 uM, 192 h
OVCAR4 = test system: OVCAR4
Ov4Carbo = test system: Ov4Carbo
Ov4Cis = test system: Ov4Cis
[1] = dl922-947 oncolytic adenovirus co-treatment: MOI 10
[2] = dl922-947 oncolytic adenovirus co-treatment: none

SMILES	log2 surviving fraction (OVCAR4; [1])	log2 surviving fraction (OVCAR4; [2])	log2 surviving fraction (Ov4Carbo; [1])	log2 surviving fraction (Ov4Carbo; [2])	log2 surviving fraction (Ov4Cis; [1])	log2 surviving fraction (Ov4Cis; [2])
CCOc1ccc(NC(C)=O)cc1 [Phenacetin]	0.425 ± 0.46	-0.134 ± 0.17	0.79	0.436	-0.61	-1.02
c1ccc2nc(N3CCNCC3)ccc2c1 [Quipazine Maleate]	0.369 ± 0.53	-0.227 ± 0.89	0.234	-1.11	0.664	0.188
COC(=O)C1=CO[C@@H](O[C@@H]2O[C@H](CO)[C@@H](O)[C@H](O)[C@H]2O)[C@@H]2C(CO)=CC[C@H]12 [Geniposide]	0.295 ± 0.43	0.925 ± 0.63	-0.094	0.485	0.371	0.944
CC(C)C[C@H](NC(=O)[C@@H](O)[C@H](N)Cc1ccccc1)C(=O)O [Ubenimex (Bestatin)]	-0.172 ± 0.48	-0.684 ± 0.11	-0.174	-1.42	-0.187	-1.09
CN(C)CCN(Cc1cccs1)c1ccccn1 [Methapyrilene HCl]	0.0219 ± 1.8	-0.139 ± 0.34	0.578	0.642	0.275	-0.299
CC(C)C(=O)Oc1ccc(CO)cc1[C@H](CCN(C(C)C)C(C)C)c1ccccc1 [Fesoterodine fumarate (Toviaz)]	0.013 ± 0.93	-0.301 ± 0.012	0.348	0.397	-0.825	-0.642
CCCCCCCCCCCCCCSCC(=O)OC[C@H](COP(=O)([O-])OCC[N+](C)(C)C)OC(=O)CSCCCCCCCCCCCCCC [Phosphatidylcholine]	-0.156 ± 0.79	0.439 ± 0.7	-0.627	-0.0971	-0.481	-0.086
CNC(=O)Oc1ccc2c(c1)[C@]1(C)CCN(C)[C@@H]1N2C [Physostigmine Hemisulfate Salt]	-0.363 ± 0.52	-0.17 ± 0.26	0.688	1.54	-0.696	0.478
CCC1(c2ccccc2)C(=O)NCNC1=O [Primidone (Mysoline)]	0.0702 ± 0.95	-0.34 ± 0.61	0.164	0.205	-0.0142	0.253
CN1C2CCCC1CC(NC(=O)c1nn(C)c3ccccc13)C2 (stereo not drawn) [Granisetron HCl]	-0.118 ± 0.47	0.112 ± 0.19	-0.176	-0.289	0.0998	-0.0419
COc1cccc2c1C(=O)c1c(O)c3c(c(O)c1C2=O)C[C@@](O)(C(=O)CO)C[C@@H]3O[C@H]1C[C@H](N)[C@@H](O)[C@H](C)O1 [Epirubicin Hydrochloride]	-7.85 ± 1.8	-9.28 ± 8.7	-6.31	-11	-3.99	-10.8
Cn1c([N+](=O)[O-])cnc1COC(N)=O [Ronidazole]	0.197 ± 0.38	-0.053 ± 0.14	0.0394	-0.335	-0.123	0.421
O=C(Nc1c(Cl)cncc1Cl)c1ccc(OC(F)F)c(OCC2CC2)c1 [Roflumilast (Daxas)]	-0.164 ± 0.32	0.179 ± 0.57	1.18	-0.689	0.621	0.0847
COc1ccccc1OCC(O)CN1CCN(CC(=O)Nc2c(C)cccc2C)CC1 (stereo not drawn) [Ranolazine (Ranexa)]	0.00103 ± 0.17	0.454 ± 0.25	-1.14	1.22	-0.578	0.334
CN(C)[C@@H]1C(O)=C(C(N)=O)C(=O)[C@@]2(O)C(O)=C3C(=O)c4c(O)cccc4[C@@](C)(O)[C@H]3C[C@@H]12 [Tetracycline HCl]	1.04 ± 0.11	0.103 ± 1.8	-0.00279	0.464	1.28	0.557
O=c1[nH]c(=O)n([C@H]2C[C@H](O)[C@@H](CO)O2)cc1C(F)(F)F [Trifluridine (Viroptic)]	-1.19 ± 1.1	-2.35 ± 0.33	-1.04	-4.95	-1.59	0.427
CN[C@H]1CC[C@@H](c2ccc(Cl)c(Cl)c2)c2ccccc21 [Sertraline HCl]	-7.2 ± 2.1	-8.26 ± 2.2	-8.17	-9.76	-8.75	-13.8
NCC(=O)CCC(=O)O [5-Aminolevulinic acid hydrochloride]	0.343 ± 0.32	0.701 ± 0.11	0.637	1.43	0.355	1.18
CC(=O)Nc1ncc([N+](=O)[O-])s1 [Nithiamide]	0.93 ± 0.093	1.68 ± 0.44	-0.171	0.676	0.566	-0.726

SMILES	log2 surviving fraction (OVCAR4; [1])	log2 surviving fraction (OVCAR4; [2])	log2 surviving fraction (Ov4Carbo; [1])	log2 surviving fraction (Ov4Carbo; [2])	log2 surviving fraction (Ov4Cis; [1])	log2 surviving fraction (Ov4Cis; [2])
CC1(C)S[C@@H]2[C@H](NC(=O)[C@H](N)c3ccccc3)C(=O)N2[C@H]1C(=O)O [Ampicillin Trihydrate]	0.448 ± 0.69	0.682 ± 1.6	1.26	0.687	-0.31	0.0588
Cc1ncc(C[n+]2csc(CCO)c2C)c(N)n1 [Thiamine HCl (Vitamin B1)]	-0.528 ± 0.33	-0.291 ± 0.69	0.047	-1.19	0.499	-0.621
COc1cc([C@@H]2c3cc4c(cc3[C@@H](O[C@@H]3O[C@@H]5CO[C@@H](c6cccs6)O[C@H]5[C@H](O)[C@H]3O)[C@H]3COC(=O)[C@H]23)OCO4)cc(OC)c1O [Teniposide (Vumon)]	-5.28 ± 0.45	-7.46 ± 3.5	-6.28	-8.99	-7.19	-11.7
CC(=O)[C@]1(O)Cc2c(O)c3c(c(O)c2[C@@H](O[C@H]2C[C@H](N)[C@H](O)[C@H](C)O2)C1)C(=O)c1ccccc1C3=O [Idarubicin HCl]	-9.25 ± 2.2	-9.95 ± 8.8	-7.87	-10.6	-9.67	-15.3
CC1Cc2ccccc2N1NC(=O)c1ccc(Cl)c(S(N)(=O)=O)c1 (stereo not drawn) [Indapamide (Lozol)]	-0.215 ± 1.3	-0.393 ± 0.66	0.094	1.39	-0.76	-0.474
C[C@@H]1[C@H](O)[C@@H](C)/C=C/C=C/C=C/C=C/C=C/C=C/C=C/[C@H](O[C@@H]2O[C@H](C)[C@@H](O)[C@H](N)[C@@H]2O)C[C@@H]2O[C@](O)(C[C@@H](O)C[C@@H](O)[C@H](O)CC[C@@H](O)C[C@@H](O)CC(=O)O[C@H]1C)C[C@H](O)[C@H]2C(=O)O [Amphotericin B (Abelcet)]	-1.02 ± 1.1	-0.0423 ± 0.48	0.132	0.146	-0.346	-0.085
CCCCCCCCCCCC[N+](C)(C)CCOc1ccccc1 [Domiphen Bromide]	-9.96 ± 0.97	-11.7 ± 6.4	-8.34	-11.4	-8.81	-15.3
CS(=O)(=O)Nc1ccc([N+](=O)[O-])cc1Oc1ccccc1 [Nimesulide]	-0.297 ± 0.57	-0.548 ± 0.24	0.0766	0.315	-1.23	-0.791
Nc1nc(Cl)nc2c1ncn2[C@@H]1O[C@H](CO)[C@@H](O)[C@@H]1F [Clofarabine]	-3.63 ± 0.87	-3.49 ± 1.6	-3.84	-0.28	-5.95	-8.56
Nc1nnc(-c2cccc(Cl)c2Cl)c(N)n1 [Lamotrigine]	0.184 ± 0.69	0.0251 ± 1.2	0.206	-0.405	-0.263	-0.832
CN1[C@@H]2CC[C@H]1C[C@@H](OC(=O)c1c[nH]c3ccccc13)C2 [Tropisetron]	-0.29 ± 0.23	-0.707 ± 0.97	0.753	-0.308	-0.307	-0.0518
CN1CCC(=C2c3ccccc3CC(=O)c3sccc32)CC1 [Ketotifen fumarate (Zaditor)]	-0.424 ± 0.5	-0.109 ± 0.023	-1.17	-0.51	-0.802	-0.415
COC(=O)[C@H]1[C@H]2C[C@@H]3c4[nH]c5cc(OC)ccc5c4CCN3C[C@H]2C[C@@H](OC(=O)c2cc(OC)c(OC)c(OC)c2)[C@@H]1OC [Reserpine]	-2.6 ± 1.4	-3 ± 0.63	-7.5	-6.55	-3.09	-3.06
CN(Cc1ccc(C(C)(C)C)cc1)Cc1cccc2ccccc12 [Butenafine HCl]	0.665 ± 0.018	0.453 ± 0.16	0.121	-0.853	0.704	0.522
CC1CC(OC(=O)C(O)c2ccccc2)CC(C)(C)C1 (stereo not drawn) [Cyclandelate]	0.0607 ± 0.54	-0.147 ± 0.99	0.163	0.2	0.127	0.226
Nc1nc2c(ncn2COC(CO)CO)c(=O)[nH]1 [Ganciclovir]	-0.333 ± 0.11	0.266 ± 0.23	0.7	-0.1	0.0248	-0.412
Cc1c(-c2ccc(O)cc2)n(Cc2ccc(OCCN3CCCCCC3)cc2)c2ccc(O)cc12 [Bazedoxifene HCl]	-8.346 ± 0.057	-9.28 ± 4.5	-7.04	-9.84	-7.84	-12.5
Cc1c(Nc2ncccc2C(=O)O)cccc1C(F)(F)F [Flunixin meglumin]	0.51 ± 0.19	0.296 ± 0.27	0.125	0.165	0.245	0.17
Cc1cccc(C)c1NC1=NCCCS1 [Xylazine HCl]	-0.0521 ± 0.31	0.595 ± 0.33	0.0891	-0.0957	-0.353	-0.377

Source: the supplement of paper PMC8813932
